# Measurements published in paper PMC12505981.
# Substitutions are numbered along the chain they refer to. Names may count otherwise. These are yes or no findings as the source states them, for the method shown. Some results given as binding are weak or reduced against the parent protein; the word gives no strength. Tags and fused reporters may be left off the sequences shown.
# B1: EnvC L236E (bacterial two-hybrid fusion) (protein, UniProt P37690 35-419)
# chain: DERDQLKSIQADIAAKERAVRQKQQQRASLLAQLKKQEEAISEATRKLRETQNTLNQLNKQIDEMNASIAKLEQQKAAQERSLAAQLDAAFRQGEHTGIQLILSGEESQRGQRLQAYFGYLNQARQETIAQLKQTREEVAMQRAELEEKQSEQQTLLYEQRAQQAKLTQALNERKKTLAGLESSIQQGQQQLSELRANESRERNSIARAEAAAKARAEREAREAQAVRDRQKEATRKGTTYKPTESEKSLMSRTGGLGAPRGQAFWPVRGPTLHRYGEQLQGELRWKGMVIGASEGTEVKAIADGRVILADWLQGYGLVVVVEHGKGDMSLYGYNQSALVSVGSQVRAGQPIALVGSSGGQGRPSLYFEIRRQGQAVNPQPWLGR
# B2: EnvC I240E (bacterial two-hybrid fusion) (protein, UniProt P37690 35-419)
# chain: B1 chain with E202L, I206E
# B3: EnvC I240K (bacterial two-hybrid fusion) (protein, UniProt P37690 35-419)
# chain: B1 chain with E202L, I206K
# B4: EnvC (wild-type, mature form, bacterial two-hybrid fusion) (protein, UniProt P37690 35-419)
# chain: B1 chain with E202L
# B5: EnvC Glu233Arg (bacterial two-hybrid fusion) (protein, UniProt P37690 35-419)
# chain: B1 chain with E199R, E202L
# B6: EnvC Arg237Glu (bacterial two-hybrid fusion) (protein, UniProt P37690 35-419)
# chain: B1 chain with E202L, R203E
# Molecular target: T1, AmiB (mature form, bacterial two-hybrid fusion) (E. coli) (UniProt P26365)
# T1 sequence: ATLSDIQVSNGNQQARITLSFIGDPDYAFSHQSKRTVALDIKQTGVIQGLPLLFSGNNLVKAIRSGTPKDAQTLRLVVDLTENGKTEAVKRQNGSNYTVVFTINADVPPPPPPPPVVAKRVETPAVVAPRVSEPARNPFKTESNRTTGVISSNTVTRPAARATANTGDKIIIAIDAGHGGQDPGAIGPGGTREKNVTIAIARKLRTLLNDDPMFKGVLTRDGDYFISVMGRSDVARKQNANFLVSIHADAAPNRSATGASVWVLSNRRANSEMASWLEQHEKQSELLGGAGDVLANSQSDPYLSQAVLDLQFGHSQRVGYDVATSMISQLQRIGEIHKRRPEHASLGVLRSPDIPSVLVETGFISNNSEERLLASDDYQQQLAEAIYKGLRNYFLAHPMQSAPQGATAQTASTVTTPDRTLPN
# Test: two-hybrid; BACTH (T18 and T25 fusions of split CyaA) in the cytoplasm of E. coli BTH101; cultures spotted on LB agar with X-gal and 0.5 mM IPTG, 20°C, 3 days
row,Binder,binding
1,B1,binds
2,B2,binds
3,B3,binds
4,B4,no binding
5,B5,no binding
6,B6,no binding
